# The list shows a part of the results.
# System: PfHDP1 homeodomain (GST-tagged)
# Assay: gcPBM binding intensity (ln(normalized median fluorescence intensity)); higher = stronger DNA binding
# Summary of the method: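 The highest Masliner-normalised natural-log median intensity across replicate spots of either probe orientation is reported as binding intensity. GST-tagged P. falciparum DNA-binding domains expressed in E. coli were applied for 1 h to an Agilent 4 × 180k array of primer-extended double-stranded 36-bp intergenic genomic probes plus negative controls, and bound protein was detected with Alexa488 anti-GST antibody and scanned at 488 nm.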
row,Sequence,gcPBM binding intensity (ln)
1,TTCATATAACCTTATAGTACATAATTAAAAATATAA [XGTACX_site6328],6.32
2,TATTATTCTATACATTGTACATATTTTATAGTATGT [XGTACX_site73],6.52
3,AAAAAAAAAAAATAGACACACATATTATATATATAT [CACACA_site1419],8.52
4,TATGTATTTATCCACTTACATTTTTACTTTTCCATT [CACACA_negctrl_site1141],6.4
5,ATTTATACATGCTAATGTACTTATTTCACCTATATC [XGTACX_site3120],6.3
6,TATGGTATATACAACACACACACATATGTATAAATA [CACACA_site6562],6.96
7,TATATATATAATATTACACACATATATTTATATTTT [CACACA_site3460],7.53
8,CAAGTATTAATTATGTGTACATATATATATATATAT [XGTACX_site5311],9.29
9,AAATATATATACACATATATATATATATATATATAT [CACACA_negctrl_site1742],9.5
10,CTTTCCTATTTGACACGTACGAAATTTTACATAAAA [XGTACX_site6689],6.94
11,AAAATAAAAAATATAACACACAATAAATATTTATAT [CACACA_site6986],6.7
12,TATGAAATATCGTGCACACACGAATAATATAAGAAT [CACACA_site4842],9.21
13,AAATGTGAAGTGAATACACACCTAATAAATATAACA [CACACA_site5727],6.59
14,TACTGATCTTTCTAGGTGCGCTGCTACCATTATCGT [GTGCAC_site9538],6.41
15,ATATATAGATAATCAAGTACATAACAAGATATAAGA [XGTACX_site2186],6.66
16,ACATGAAATGTTTAAAGTACATATATAAATTTTTTT [XGTACX_site4519],6.12
17,TATATTTAATTATTATGTACTTATAATTTTTGAAAG [XGTACX_site8548],6.73
18,ATCCGAGTGTGAAATACACACATGATAATGTGAATG [CACACA_site919],6.23
19,AATTATATTACAAACTGTACATATATAATTTGTCCA [XGTACX_site6009],6.15

row,Sequence,gcPBM binding intensity (ln)
1,TCTTAAGGAAAAGAGTGTACAGAAATTTTTATTAAC [XGTACX_site6139],6.33
2,TATAGGAATATATGGTGTACCTATAAATCTGACATA [XGTACX_site8111],6.31
3,TTAAATAAGTAATTATGTACATATAATATTCTTTAT [XGTACX_site5280],6.28
4,TAGAAAATATAAAAATGTACGTAAATAAAATGTGCA [XGTACX_site3459],7.08
5,AAAAATAAAAATTGCACACTAAAAAATTACGCACGA [CACACA_site3418],9.87
6,ATTTATATATTTATACGTACTTATATATTGTTACAT [XGTACX_site6254],6.81
7,TTAATATTGTATTTCACACATAATTTAATATACTCA [CACACA_site5678],6.3
8,TATAATGAGGATAATAGTACATATGAATACAAAAAA [XGTACX_site3665],6.91
9,GCCATAAAAATATATACACACATAAAAAAAAATTAT [CACACA_site1176],6.65
10,TACACAAGCAGACACACACACATATAGATTTATATA [CACACA_site6715],6.59
11,ACTGCGTTTTTACACGCGCACTGCAATGAACAATAT,6.97
12,AAGATAATCACAAAATGTACAGGAAATATGACAACC [XGTACX_site3607],7.02
13,TATGTAACAAAAAAAAGTACACATATATATAGTGTA [XGTACX_site7772],6.41
14,TTTTCTAAATTAATAATACACACTTGCTAAAATCAT [CACACA_site3207],6.65
15,AAGAAAAAGGAACGGAAAAACAAACAAGGGGCCCAA [TGCATGCA_negctrl_site4],6.16
16,AATGGTATAAACAATACACACATAATATATATATTG [CACACA_site4997],6.8
17,TATTAGAACATATATGCATGCAATAGATATTCCAAT [TGCATGCA_site297],6.5
18,TATGTATAATTTCATTGTACTTTTGATATTATCATA [XGTACX_site280],5.94
19,ATATCATTTTCTAGCACACACATTGTTATTACCTTG [CACACA_site902],7.13

row,Sequence,gcPBM binding intensity (ln)
1,AGTCTGAATAAAATTACACACATATACAGATATATA [CACACA_site5054],6.33
2,TTTTTTTAAATATACACACACATTTATACAGATATA [CACACA_site5811],6.76
3,TTTCTAAAAATAAGAACACACACATATAAGCATATA [CACACA_site8714],7.05
4,AAAGGAAAATGTGTAAAAAGAAATGCTAGGTATATA [GTGCAC_negctrl_site699],6.9
5,ATATATATATAATATAGTACGTATAATATATGAATC [XGTACX_site4385],8.24
6,TATAATGCTCTTCTTTGTACATATTATGATTATATT [XGTACX_site2332],9.39
7,AGTGGTGTTAAATGTTGTACGATTTTGTGTTATTCG [XGTACX_site178],6.75
8,TTTTTGTTATATAAAGTGCAGTGACAAGCAGTTTAA,6.84
9,ATATAAAAAAATAAAACACACACATATATATTATAT [CACACA_site8909],6.91
10,ATTTAAGCATTATTTTGTACGAAAATAAAAAAATGA [XGTACX_site6958],6.37
11,TAATAGTATATAAAAAGTACATAATAAGATATGAAA [XGTACX_site1000],6.39
12,AAAAAAAAAATTGAAAGTACAAATATGTATTATATA [XGTACX_site2455],6.34
13,TAAAATATGTCATGTGGTACATGAATAGCTTTTATT [XGTACX_site3809],6.03
14,ATTATGTGCCAATACACACACACATATATATATATA [CACACA_site468],9.38
15,AAAAAAAAAAAAAACACACAAATCATAAATAAATAT [CACACA_site6362],6.43
16,TTTAAATATTACATATGTACTTATAAATATATATAT [XGTACX_site1284],7.5
17,AAGGAATAGGCATATACACACAGGTACAGATATATA [CACACA_site4402],6.56
18,TCATATAAATACACGTGTACATATATATATTACAGT [XGTACX_site1954],6.82
19,AATATAAAAAATAGTTGTACTATATTTAAATATGAC [XGTACX_site2937],6.39
